Experimental data reported in PubChem BioAssay AID493208 (National Center for Advancing Translational Sciences (NCATS), 2011).
Screen size: about 44,000 compounds; about 340 (0.77%) were called active. Roughly 5% stayed inconclusive and do not appear here. Calls come from the whole dose curve; as a rule, active = well fitted inhibition curve with a large enough effect; inconclusive = small, poorly fitted or top-dose-only effect; inactive = flat fitted curve, though single readings scatter. The list shows a part of the results.

Experiment: Acumen qHTS Assay for Inhibitors of the mTORC1 Signaling Pathway in MEF (Tsc2-/-, p53-/-) Cells: Sytravon;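 note: plate controls were DMSO for no effect and rapamycin for full effect; nearly all actives have a fitted effect of over 50% in size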
Details: phospho-rpS6 immunofluorescence/PI, 24 h; series mostly up to 38.3 µM; activity change, negative = inhibition: at the top concentration
In short: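 Immunofluorescence of rpS6 phosphorylation in Tsc2-/-, p53-/- MEFs after 24 h compound exposure, normalized to propidium iodide signal. Activity is expressed as % positive cells, thresholded with 7.5 nM rapamycin.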

Compound | activity change, negative = inhibition
CN(C)c1ccc(CNC(=O)CCCn2ccc3cc(S(=O)(=O)N4CCCC4)ccc32)cc1 | inactive: -9.31%
COc1ccc(CCN2CCC(CNC(=O)c3cnn(-c4ccccc4)c3C3CCN(C(=O)OC(C)(C)C)CC3)CC2)cc1 | inactive: 6.66%
Cc1nn(C(C)C(=O)NC2CCC(C)CC2)c(=O)c2cc3sccc3n12 (stereo not drawn) | inactive: -3.11%
COc1cccc(N2CCN(S(=O)(=O)c3ccc4c(c3)CCCN4C(C)=O)CC2)c1 | inactive: -2.92%
CCOC(=O)c1c(NC(=O)c2cc(=O)c3ccc(C)cc3o2)sc(C)c1C | inactive: -13.7%
COc1ccc(Cl)cc1NC(=O)c1cc(C)nn1-c1ccccc1 | inactive: -1.99%
COc1ccc(OC)c(S(=O)(=O)N2CC=C(c3c(C)n(CC(=O)N4CCCC4)c4ccccc34)CC2)c1 | inactive: -8.01%
O=S(=O)(c1ccc(Cl)cc1)c1nnn2c1nc(N1CCCCC1)c1sccc12 | inactive: 0.0604%
Fc1ccccc1-n1ncc2c1ncn1nc(Cc3ccccc3)nc21 | inactive: 2.25%
Cc1ccccc1NC(=O)CN(c1ccc(Cl)cc1Cl)S(=O)(=O)c1ccccc1 | inactive: -1.54%
COc1ccc(-c2nc3sc(CCNC(=O)c4ccccc4C)c(C)n3n2)cc1 | inactive: 1.25%
Cc1cn(C)c(CC(=O)N2CCN(c3ccccc3F)CC2)c1C(=O)O | inactive: -8.32%
CC(CNC(=O)CCS(=O)(=O)c1ccc2c(c1)oc(=O)n2C)c1ccccc1 (stereo not drawn) | inactive: 4.26%
Cc1ccc2c(c1)-c1c(c(C(=O)N3CCN(c4cc(Cl)ccc4C)CC3)nn1C)CS2 | inactive: 0%
Cc1cccc(NC(=O)N2CCC(CN3CCOCC3)CC2)c1C | inactive: -10%
O=S(=O)(NCc1ccccc1Cl)c1ccc(N2CCCCS2(=O)=O)cc1 | inactive: -2.18%
Cc1cccn2c(=O)c3cc(C(=O)N(Cc4ccccc4)C(C)C)sc3nc12 | inactive: -10.2%
CCCCN(C)CCNC(=O)c1ccc2c(c1)NC(=O)CN2 | inactive: 12.7%
Cc1c(C(=O)NCCc2ccc(S(N)(=O)=O)cc2)sc2nc3n(c(=O)c12)CCCC3 | inactive: 8.29%
COc1ccc(-c2cc(C(F)(F)F)n3nc(C(=O)NCC45CC6CC(CC(C6)C4)C5)cc3n2)cc1OC | inactive: -1%
Cc1cccc(Cn2c(C)c(CNC3CCCCC3)c(C(=O)O)c2C)c1 | inactive: -4.84%
Cc1cc(Cl)ccc1NC(=O)C1CCN(c2nnc(-n3c(C)ccc3C)s2)CC1 | inactive: -4.9%
CCOC(=O)c1ccccc1NC(=O)N1CCOc2ccc(Cl)cc21 | inactive: -12.2%
CC1CCN(S(=O)(=O)c2ccc3c(c2)N(CC(=O)O)C(=O)CO3)CC1 | inactive: 1.16%

Compound | activity change, negative = inhibition
CCc1ccccc1NC(=O)CSc1nc2c(oc3ccccc32)c(=O)n1-c1ccccc1F | inactive: -1.79%
Cc1ccc(NC(=O)C(=O)NCC(c2cccnc2)N2CCN(Cc3ccccc3)CC2)cc1 (stereo not drawn) | inactive: -0.505%
Cc1ccc2ccc3cc(C(=O)N4CCN(c5ccccc5)CC4)nc3c2[nH]1 | inactive: -5.49%
CC(=O)Nc1ccc(-c2nnc(SCC(=O)c3ccc([N+](=O)[O-])cc3)o2)cc1 | inactive: -17.9%
Cc1cc(C)c(NC(=O)CSc2nc(-c3ccc(F)cc3)nc3c2Cc2c(CO)cnc(C)c2O3)c(C)c1 | inactive: 2.37%
COc1ccc(S(=O)(=O)N(CC(=O)Nc2cccc(C)c2)c2ccc(C)cc2)cc1OC | inactive: 1.27%
CCCCSCCCNC(=O)C1CCN(Cc2nc(-c3cccc(Br)c3)oc2C)CC1 | inactive: -16.3%
CCOC(=O)C1=C(CN(CC)Cc2ccccc2)NC(=O)NC1c1ccc(OC(C)C)cc1 (stereo not drawn) | inactive: -2.77%
COc1ccccc1CNC(=O)c1ccc(N2CCCC2)c(NC(=O)NCc2ccc(F)cc2)c1 | inactive: 0%
CC(C)CN(CCCNC(=O)CN1N=C(c2ccccc2)CCC1=O)CC(C)C | inactive: -10.9%
CCOc1ccc(CCNC(=O)c2[nH]c3cc(OC)ccc3c2Sc2ccccc2)cc1OCC | inactive: 0.899%
O=C(Cn1ncc2c3ccccc3n(Cc3ccccc3F)c2c1=O)N1CCCCC1 | inactive: 0.393%
COc1ccc(N2CCN(c3ccc(-c4nc(-c5cccc(C)c5)no4)cc3[N+](=O)[O-])CC2)cc1 | inactive: 1.42%
O=C(NCCC1=CCCCC1)c1ccc2c(c1)N(Cc1cccc(Cl)c1)C(=O)c1ccccc1S2(=O)=O | inactive: -1.96%
CCOc1ccc(NC(=O)Cn2c(=O)cc(C)c3c(C)nn(-c4cccc(Cl)c4C)c32)cc1 | inactive: -11.9%
CCOc1ccc(S(=O)(=O)c2cn(Cc3ccc(OC)cc3)c3ccc(F)cc3c2=O)cc1 | inactive: 2.98%
CCOc1ccc(C(=O)N2CCN(CCc3ccccn3)CC2)cc1 | inactive: -3.93%
Cc1nn(-c2ccc(N3CCCC3)nn2)c(C)c1CCC(=O)NCc1ccc(OC(C)C)cc1 | inactive: -4.17%
Cn1c(=O)[nH]c(=O)c2c1nc1n2CCN1c1ccccc1 | inactive: -2.35%
CC(C)c1ccc(NC(=O)CCNS(=O)(=O)c2ccc3c(c2)CCCC(=O)N3)cc1 | inactive: 4.13%
CCOC(=O)CC(NC(=O)CCc1c(C)nc2ncnn2c1C)c1ccc(OC(C)C)cc1 (stereo not drawn) | inactive: -0.907%
Cc1ccccc1CSc1nc2cccnc2n1Cc1ccc(C(=O)NC2CC2)cc1 | inactive: -8%
CCOc1ccc(Nc2nc(C)c(NC(=O)c3cccc(OC)c3)c(Nc3ccc(OCC)cc3)n2)cc1 | inactive: 1.18%
Cc1ccc(N2CCN(S(=O)(=O)c3nnc(NC(=O)c4ccc(C(C)C)cc4)s3)CC2)cc1 | inactive: 0.585%
